Results taken from publication PMC9911399, “Two distinct binding modes provide the RNA-binding protein RbFox with extraordinary sequence specificity”.
Substitutions are numbered along the chain they refer to; changes in the protein carry UniProt numbers. The list shows a part of the results.

T1: RBFOX1 RRM (Homo sapiens, UniProt Q9NWB1 109-208)
T1 sequence: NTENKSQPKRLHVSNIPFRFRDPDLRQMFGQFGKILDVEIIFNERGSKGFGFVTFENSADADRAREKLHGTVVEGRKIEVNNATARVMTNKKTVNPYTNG

B1: CGGAUUG (DNA:RNA)
RNA: GGGAGACCGGAAUUCAGAUUGUCCCGGAUUGUUAAAUCCCGUCGUAGCCACCA
DNA 1: CAATCTGAATTCCGGTCTCCC
DNA 2: TGGTGGCTACGACGGGATT
B2: ACGCCAC (DNA:RNA)
RNA: B1 RNA with C25A, G26C, A28C, U29C, U30A, G31C
DNA 1: CAATCTGAATTCCGGTCTCCC
DNA 2: TGGTGGCTACGACGGGATT
B3: AUCCGUG (DNA:RNA)
RNA: B1 RNA with C25A, G26U, G27C, A28C, U29G
DNA 1: CAATCTGAATTCCGGTCTCCC
DNA 2: TGGTGGCTACGACGGGATT
B4: UGCUAAU (DNA:RNA)
RNA: B1 RNA with C25U, G27C, A28U, U29A, U30A, G31U
DNA 1: CAATCTGAATTCCGGTCTCCC
DNA 2: TGGTGGCTACGACGGGATT
B5: GCUUCGG (DNA:RNA)
RNA: B1 RNA with C25G, G26C, G27U, A28U, U29C, U30G
DNA 1: CAATCTGAATTCCGGTCTCCC
DNA 2: TGGTGGCTACGACGGGATT
B6: AAAACGC (DNA:RNA)
RNA: B1 RNA with C25A, G26A, G27A, U29C, U30G, G31C
DNA 1: CAATCTGAATTCCGGTCTCCC
DNA 2: TGGTGGCTACGACGGGATT
B7: GUCGGGU (DNA:RNA)
RNA: GGGAGACCGGAAUUCAGAUUGUCCGUCGGGUUUAAAUCCCGUCGUAGCCACCA
DNA 1: CAATCTGAATTCCGGTCTCCC
DNA 2: TGGTGGCTACGACGGGATT
B8: GCAUCUU (DNA:RNA)
RNA: B7 RNA with U26C, C27A, G28U, G29C, G30U
DNA 1: CAATCTGAATTCCGGTCTCCC
DNA 2: TGGTGGCTACGACGGGATT
B9: UACUAGA (DNA:RNA)
RNA: B7 RNA with G25U, U26A, G28U, G29A, U31A
DNA 1: CAATCTGAATTCCGGTCTCCC
DNA 2: TGGTGGCTACGACGGGATT
B10: UAACUAC (DNA:RNA)
RNA: B1 RNA with C25U, G26A, G27A, A28C, U30A, G31C
DNA 1: CAATCTGAATTCCGGTCTCCC
DNA 2: TGGTGGCTACGACGGGATT
B11: CCAAGUC (DNA:RNA)
RNA: B1 RNA with G26C, G27A, U29G, G31C
DNA 1: CAATCTGAATTCCGGTCTCCC
DNA 2: TGGTGGCTACGACGGGATT
B12: ACCCCGU (DNA:RNA)
RNA: B7 RNA with G25A, U26C, G28C, G29C
DNA 1: CAATCTGAATTCCGGTCTCCC
DNA 2: TGGTGGCTACGACGGGATT
B13: UGGGGCC (DNA:RNA)
RNA: B1 RNA with C25U, A28G, U29G, U30C, G31C
DNA 1: CAATCTGAATTCCGGTCTCCC
DNA 2: TGGTGGCTACGACGGGATT
B14: CAGGUGA (DNA:RNA)
RNA: B1 RNA with G26A, A28G, U30G, G31A
DNA 1: CAATCTGAATTCCGGTCTCCC
DNA 2: TGGTGGCTACGACGGGATT
B15: CUAUGCG (DNA:RNA)
RNA: B1 RNA with G26U, G27A, A28U, U29G, U30C
DNA 1: CAATCTGAATTCCGGTCTCCC
DNA 2: TGGTGGCTACGACGGGATT
B16: AUCAAGG (DNA:RNA)
RNA: B7 RNA with G25A, G28A, G29A, U31G
DNA 1: CAATCTGAATTCCGGTCTCCC
DNA 2: TGGTGGCTACGACGGGATT
B17: GAGGAGC (DNA:RNA)
RNA: B7 RNA with U26A, C27G, G29A, U31C
DNA 1: CAATCTGAATTCCGGTCTCCC
DNA 2: TGGTGGCTACGACGGGATT
B18: GCAUUGA (DNA:RNA)
RNA: B7 RNA with U26C, C27A, G28U, G29U, U31A
DNA 1: CAATCTGAATTCCGGTCTCCC
DNA 2: TGGTGGCTACGACGGGATT
B19: GGCCGUC (DNA:RNA)
RNA: B7 RNA with U26G, G28C, G30U, U31C
DNA 1: CAATCTGAATTCCGGTCTCCC
DNA 2: TGGTGGCTACGACGGGATT
B20: UUUCGUU (DNA:RNA)
RNA: B7 RNA with G25U, C27U, G28C, G30U
DNA 1: CAATCTGAATTCCGGTCTCCC
DNA 2: TGGTGGCTACGACGGGATT

The binders below were run against T1, RBFOX1 RRM (assay: EMSA; HiTS-Eq, 1 nM pool, 10 min; buffer printed only for the single-RNA assays: 10 mM Tris pH 7.5, 150 mM NaCl, 3.4 mM EDTA, 0.001% NP-40, 30 C). Settings: tags: His6 N-terminal (pET28a); label: 5' 32P.
In short: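 Relative association constants, normalised to the cognate motif, were derived by comparing read counts of each RNA species with those of the control reaction. The RNA sequenced was the free fraction, separated by 8% native PAGE after a 10 min equilibration in 50 µL of 1 nM 5′-radiolabelled RNA (7 randomized nucleotides) with increasing concentrations of purified wild-type or mutant RbFox RRM.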
For B1, the binding signal was 0.0329 KA relative to UGCAUGU. In the case of B2, the binding signal is reported as 0.0026 KA relative to UGCAUGU. For B3, the binding signal was 0.00685 KA relative to UGCAUGU. In the case of B4, the binding signal is reported as 0.012 KA relative to UGCAUGU. In the case of B5, the binding signal is reported as 0.0114 KA relative to UGCAUGU. B6 was tested, and the binding signal was 0.00119 KA relative to UGCAUGU. With B7 the binding signal was 0.0137 KA relative to UGCAUGU. B8 was tested, and the binding signal was 0.0116 KA relative to UGCAUGU. B9 was tested, and the binding signal was 0.0112 KA relative to UGCAUGU. For B10, the binding signal was 0.00615 KA relative to UGCAUGU. For B11, the binding signal was 0.00391 KA relative to UGCAUGU. In the case of B12, the binding signal is reported as 0.00267 KA relative to UGCAUGU. For B13, the binding signal was 0.0345 KA relative to UGCAUGU. B14 was tested, and the binding signal was 0.0121 KA relative to UGCAUGU. B15 was tested, and the binding signal was 0.0112 KA relative to UGCAUGU. In the case of B16, the binding signal is reported as 0.00691 KA relative to UGCAUGU. For B17, the binding signal was 0.0119 KA relative to UGCAUGU. With B18 the binding signal was 0.0124 KA relative to UGCAUGU. With B19 the binding signal was 0.00869 KA relative to UGCAUGU. For B20, the binding signal was 0.015 KA relative to UGCAUGU.
